# Data reported in the supplement of paper PMC8728848.
# This is one part of the list.
# B1: RBMC1 (Vibrio cholerae) (protein)
# chain: QQSQRVVTADNLMYLRSGFAIDAIGTTVNNLVGGPVQGTNGGVLRAPIALDQLQSVEVTSGLYNWGGYHIVAIKFTMKDGSSVLLGSTHYASNKKVETYTVPQGKRIKQINVWTGGWLVEGFQFVY
# Assays:
# Experiment in all cases: glycan array binding signal (z-score within array); higher = stronger binding
# Details in all cases: glycan notation: IUPAC condensed, linker removed
# [1] = target: GlcNAc(b1-3)Gal(b1-4)GlcNAc(b1-3)Gal(b1-4)GlcNAc(b1-3)GalNAc
# Procedure, shortened: (§1)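 Columns mapping to the same glycan were averaged after glycan names were converted to IUPAC-condensed notation. The data come from 3228 arrays in the Consortium for Functional Glycomics database, limited to those with an available protein sequence. Binding is reported as a within-array Z-score averaged across arrays of one protein sequence and across linkers.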
# [2] = target: GlcNAc(b1-3)Gal(b1-4)GlcNAc(b1-3)GalNAc
# Procedure, shortened: as §1
# [3] = target: GlcNAc(b1-3)Gal(b1-4)GlcNAc(b1-3)[GlcNAc(b1-3)Gal(b1-4)GlcNAc(b1-3)]GalNAc
# Procedure, shortened: as §1
# [4] = target: GlcNAc(b1-3)Gal(b1-4)GlcNAc(b1-6)[Gal(b1-3)]GalNAc
# Procedure, shortened: as §1
# [5] = target: GlcNAc(b1-3)Gal(b1-4)GlcNAc(b1-6)[GlcNAc(b1-3)Gal(b1-3)]GalNAc
# Procedure, shortened: as §1
# [6] = target: GlcNAc(b1-3)Gal(b1-4)GlcNAc(b1-6)[GlcNAc(b1-3)]Gal(b1-4)GlcNAc
# Procedure, shortened: as §1
# GlcNAc(b1-3)GalNAc = target: GlcNAc(b1-3)GalNAc
# Procedure, shortened: as §1
# GlcNAc(b1-3)Man = target: GlcNAc(b1-3)Man
# Procedure, shortened: as §1
# [7] = target: GlcNAc(b1-3)[GlcNAc(b1-4)][GlcNAc(b1-6)]GlcNAc
# Procedure, shortened: as §1
# [8] = target: GlcNAc(b1-3)[GlcNAc(b1-6)]Gal(b1-4)GlcNAc
# Procedure, shortened: as §1
# [9] = target: GlcNAc(b1-3)[GlcNAc(b1-6)]GalNAc
# Procedure, shortened: as §1
# [10] = target: GlcNAc(b1-4)Gal(b1-4)GlcNAc
# Procedure, shortened: as §1
# GlcNAc(b1-4)GlcNAc = target: GlcNAc(b1-4)GlcNAc
# Procedure, shortened: as §1
# [11] = target: GlcNAc(b1-4)GlcNAc(b1-4)GlcNAc
# Procedure, shortened: as §1
# [12] = target: GlcNAc(b1-4)GlcNAc(b1-4)GlcNAc(b1-4)GlcNAc(b1-4)GlcNAc
# Procedure, shortened: as §1
# [13] = target: GlcNAc(b1-4)GlcNAc(b1-4)GlcNAc(b1-4)GlcNAc(b1-4)GlcNAc(b1-4)GlcNAc
# Procedure, shortened: as §1
# [14] = target: GlcNAc(b1-4)[GlcNAc(b1-6)]GalNAc
# Procedure, shortened: as §1
# [15] = target: GlcNAc(b1-6)Gal(b1-4)GlcNAc
# Procedure, shortened: as §1
# GlcNAc(b1-6)GalNAc = target: GlcNAc(b1-6)GalNAc
# Procedure, shortened: as §1
# [16] = target: GlcNAc6S(b1-3)Gal(b1-4)GlcNAc
# Procedure, shortened: as §1
# Kdn(a2-3)Gal(b1-3)GalNAc = target: Kdn(a2-3)Gal(b1-3)GalNAc
# Procedure, shortened: as §1
# Kdn(a2-3)Gal(b1-3)GlcNAc = target: Kdn(a2-3)Gal(b1-3)GlcNAc
# Procedure, shortened: as §1
# Kdn(a2-3)Gal(b1-4)Glc = target: Kdn(a2-3)Gal(b1-4)Glc
# Procedure, shortened: as §1
# Kdn(a2-3)Gal(b1-4)GlcNAc = target: Kdn(a2-3)Gal(b1-4)GlcNAc
# Procedure, shortened: as §1
# [17] = target: Kdn(a2-3)Gal(b1-4)[Fuc(a1-3)]GlcNAc
# Procedure, shortened: as §1
# Kdn(a2-6)Gal(b1-4)GlcNAc = target: Kdn(a2-6)Gal(b1-4)GlcNAc
# Procedure, shortened: as §1
# [18] = target: Man(a1-2)Man(a1-2)Man(a1-3)Man
# Procedure, shortened: as §1
# [19] = target: Man(a1-2)Man(a1-2)Man(a1-6)[Man(a1-3)]Man
# Procedure, shortened: as §1
# Man(a1-2)Man(a1-3)Man = target: Man(a1-2)Man(a1-3)Man
# Procedure, shortened: as §1
# [20] = target: Man(a1-2)Man(a1-3)[Man(a1-2)Man(a1-6)]Man
# Procedure, shortened: as §1
# [21] = target: Man(a1-2)Man(a1-3)[Man(a1-2)Man(a1-6)]Man(a1-6)[Man(a1-2)Man(a1-2)Man(a1-3)]Man
# Procedure, shortened: as §1
# [22] = target: Man(a1-2)Man(a1-3)[Man(a1-2)Man(a1-6)]Man(a1-6)[Man(a1-2)Man(a1-2)Man(a1-3)]Man(b1-4)GlcNAc(b1-4)GlcNAc
# Procedure, shortened: as §1
# [23] = target: Man(a1-2)Man(a1-3)[Man(a1-6)]Man(a1-6)[Man(a1-2)Man(a1-3)]Man(b1-4)GlcNAc(b1-4)GlcNAc
# Procedure, shortened: as §1
# [24] = target: Man(a1-2)Man(a1-6)[Man(a1-3)]Man(a1-6)[Man(a1-2)Man(a1-2)Man(a1-3)]Man
# Procedure, shortened: as §1
# [25] = target: Man(a1-2)Man(a1-6)[Man(a1-3)]Man(a1-6)[Man(a1-2)Man(a1-2)Man(a1-3)]Man(b1-4)GlcNAc(b1-4)GlcNAc
# Procedure, shortened: as §1
# Man(a1-3)[Man(a1-6)]Man = target: Man(a1-3)[Man(a1-6)]Man
# Procedure, shortened: as §1
# [26] = target: Man(a1-3)[Man(a1-6)]Man(a1-6)[Man(a1-2)Man(a1-3)]Man(b1-4)GlcNAc(b1-4)GlcNAc
# Procedure, shortened: as §1
# [27] = target: Man(a1-3)[Man(a1-6)]Man(a1-6)[Man(a1-3)]Man
# Procedure, shortened: as §1
# [28] = target: Man(a1-3)[Man(a1-6)]Man(a1-6)[Man(a1-3)]Man(b1-4)GlcNAc(b1-4)GlcNAc
# Procedure, shortened: as §1
# [29] = target: Man(a1-3)[Man(a1-6)]Man(b1-4)GlcNAc(b1-4)GlcNAc
# Procedure, shortened: as §1
# [30] = target: Man(a1-3)[Man(a1-6)]Man(b1-4)GlcNAc(b1-4)[Fuc(a1-6)]GlcNAc
# Procedure, shortened: as §1
# Man(a1-6)Man = target: Man(a1-6)Man
# Procedure, shortened: as §1
# Man(b1-4)GlcNAc = target: Man(b1-4)GlcNAc
# Procedure, shortened: as §1
# MurNAc(b1-4)GlcNAc = target: MurNAc(b1-4)GlcNAc
# Procedure, shortened: as §1
# Neu5Ac(a2-3)Gal = target: Neu5Ac(a2-3)Gal
# Procedure, shortened: as §1
binder,measurement,setting,value
B1,glycan array binding signal (z-score),[1],-0.387
same,glycan array binding signal (z-score),[2],-0.108
same,glycan array binding signal (z-score),[3],-0.258
same,glycan array binding signal (z-score),[4],-0.288
same,glycan array binding signal (z-score),[5],-0.181
same,glycan array binding signal (z-score),[6],-0.272
same,glycan array binding signal (z-score),GlcNAc(b1-3)GalNAc,-0.294
same,glycan array binding signal (z-score),GlcNAc(b1-3)Man,0.118
same,glycan array binding signal (z-score),[7],-0.158
same,glycan array binding signal (z-score),[8],-0.379
same,glycan array binding signal (z-score),[9],-0.416
same,glycan array binding signal (z-score),[10],-0.362
same,glycan array binding signal (z-score),GlcNAc(b1-4)GlcNAc,1.84
same,glycan array binding signal (z-score),[11],-0.085
same,glycan array binding signal (z-score),[12],-0.358
same,glycan array binding signal (z-score),[13],-0.23
same,glycan array binding signal (z-score),[14],-0.352
same,glycan array binding signal (z-score),[15],-0.24
same,glycan array binding signal (z-score),GlcNAc(b1-6)GalNAc,-0.289
same,glycan array binding signal (z-score),[16],-0.267
same,glycan array binding signal (z-score),Kdn(a2-3)Gal(b1-3)GalNAc,0.471
same,glycan array binding signal (z-score),Kdn(a2-3)Gal(b1-3)GlcNAc,-0.41
same,glycan array binding signal (z-score),Kdn(a2-3)Gal(b1-4)Glc,-0.049
same,glycan array binding signal (z-score),Kdn(a2-3)Gal(b1-4)GlcNAc,-0.182
same,glycan array binding signal (z-score),[17],-0.015
same,glycan array binding signal (z-score),Kdn(a2-6)Gal(b1-4)GlcNAc,0.007
same,glycan array binding signal (z-score),[18],-0.395
same,glycan array binding signal (z-score),[19],-0.207
same,glycan array binding signal (z-score),Man(a1-2)Man(a1-3)Man,-0.424
same,glycan array binding signal (z-score),[20],-0.411
same,glycan array binding signal (z-score),[21],-0.329
same,glycan array binding signal (z-score),[22],-0.335
same,glycan array binding signal (z-score),[23],-0.383
same,glycan array binding signal (z-score),[24],-0.325
same,glycan array binding signal (z-score),[25],-0.308
same,glycan array binding signal (z-score),Man(a1-3)[Man(a1-6)]Man,0.002
same,glycan array binding signal (z-score),[26],0.166
same,glycan array binding signal (z-score),[27],-0.027
same,glycan array binding signal (z-score),[28],-0.037
same,glycan array binding signal (z-score),[29],1.13
same,glycan array binding signal (z-score),[30],0.327
same,glycan array binding signal (z-score),Man(a1-6)Man,1.1
same,glycan array binding signal (z-score),Man(b1-4)GlcNAc,-0.259
same,glycan array binding signal (z-score),MurNAc(b1-4)GlcNAc,-0.416
same,glycan array binding signal (z-score),Neu5Ac(a2-3)Gal,-0.404
